Test results published in the supplement of paper PMC8728848.
The list shows a part of the results.

Legend:
Assay in all cases: glycan array binding signal (z-score within array); higher = stronger binding
Settings in all cases: glycan notation: IUPAC condensed, linker removed
[1] = molecular target: GlcNAc(a1-6)Gal(b1-4)GlcNAc
Outline: (§1)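 Negative Z-scores can be read as non-binding. The Z-score is calculated within each array and then averaged across arrays of one protein sequence at different concentrations or buffers and across linkers. Arrays, 3228 in all, were curated from the Consortium for Functional Glycomics database and kept only where the protein sequence was available.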

[2] = molecular target: GlcNAc(b1-2)Gal(b1-3)GalNAc
Outline: as §1

[3] = molecular target: GlcNAc(b1-2)Man(a1-3)[GlcNAc(b1-2)Man(a1-6)]Man(b1-4)GlcNAc(b1-4)GlcNAc
Outline: as §1

[4] = molecular target: GlcNAc(b1-2)Man(a1-3)[GlcNAc(b1-2)Man(a1-6)]Man(b1-4)GlcNAc(b1-4)[Fuc(a1-6)]GlcNAc
Outline: as §1

[5] = molecular target: GlcNAc(b1-2)Man(a1-3)[GlcNAc(b1-4)][GlcNAc(b1-2)Man(a1-6)]Man(b1-4)GlcNAc(b1-4)GlcNAc
Outline: as §1

[6] = molecular target: GlcNAc(b1-2)Man(a1-3)[GlcNAc(b1-4)][GlcNAc(b1-2)Man(a1-6)]Man(b1-4)GlcNAc(b1-4)[Fuc(a1-6)]GlcNAc
Outline: as §1

[7] = molecular target: GlcNAc(b1-2)[GlcNAc(b1-4)]Man(a1-3)[GlcNAc(b1-2)Man(a1-6)]Man(b1-4)GlcNAc(b1-4)GlcNAc
Outline: as §1

[8] = molecular target: GlcNAc(b1-2)[GlcNAc(b1-4)]Man(a1-3)[GlcNAc(b1-4)][GlcNAc(b1-2)Man(a1-6)]Man(b1-4)GlcNAc(b1-4)GlcNAc
Outline: as §1

[9] = molecular target: GlcNAc(b1-2)[GlcNAc(b1-4)]Man(a1-3)[GlcNAc(b1-4)][GlcNAc(b1-2)[GlcNAc(b1-6)]Man(a1-6)]Man(b1-4)GlcNAc(b1-4)GlcNAc
Outline: as §1

[10] = molecular target: GlcNAc(b1-2)[GlcNAc(b1-4)]Man(a1-3)[GlcNAc(b1-4)][GlcNAc(b1-2)[GlcNAc(b1-6)]Man(a1-6)]Man(b1-4)GlcNAc(b1-4)[Fuc(a1-6)]GlcNAc
Outline: as §1

[11] = molecular target: GlcNAc(b1-2)[GlcNAc(b1-6)]Man(a1-6)[GlcNAc(b1-2)Man(a1-3)]Man(b1-4)GlcNAc(b1-4)GlcNAc
Outline: as §1

[12] = molecular target: GlcNAc(b1-2)[GlcNAc(b1-6)]Man(a1-6)[GlcNAc(b1-2)Man(a1-3)]Man(b1-4)GlcNAc(b1-4)[Fuc(a1-6)]GlcNAc
Outline: as §1

[13] = molecular target: GlcNAc(b1-2)[GlcNAc(b1-6)]Man(a1-6)[GlcNAc(b1-4)][GlcNAc(b1-2)Man(a1-3)]Man(b1-4)GlcNAc(b1-4)GlcNAc
Outline: as §1

GlcNAc(b1-3)Fuc = molecular target: GlcNAc(b1-3)Fuc
Outline: as §1

GlcNAc(b1-3)Gal = molecular target: GlcNAc(b1-3)Gal
Outline: as §1

[14] = molecular target: GlcNAc(b1-3)Gal(b1-3)GalNAc
Outline: as §1

GlcNAc(b1-3)Gal(b1-4)Glc = molecular target: GlcNAc(b1-3)Gal(b1-4)Glc
Outline: as §1

[15] = molecular target: GlcNAc(b1-3)Gal(b1-4)GlcNAc
Outline: as §1

[16] = molecular target: GlcNAc(b1-3)Gal(b1-4)GlcNAc(b1-2)Man(a1-3)[GlcNAc(b1-3)Gal(b1-4)GlcNAc(b1-2)Man(a1-6)]Man(b1-4)GlcNAc(b1-4)GlcNAc
Outline: as §1

[17] = molecular target: GlcNAc(b1-3)Gal(b1-4)GlcNAc(b1-2)Man(a1-3)[GlcNAc(b1-3)Gal(b1-4)GlcNAc(b1-2)Man(a1-6)]Man(b1-4)GlcNAc(b1-4)[Fuc(a1-6)]GlcNAc
Outline: as §1

[18] = molecular target: GlcNAc(b1-3)Gal(b1-4)GlcNAc(b1-2)[GlcNAc(b1-3)Gal(b1-4)GlcNAc(b1-6)]Man(a1-6)[GlcNAc(b1-3)Gal(b1-4)GlcNAc(b1-2)Man(a1-3)]Man(b1-4)GlcNAc(b1-4)GlcNAc
Outline: as §1

[19] = molecular target: GlcNAc(b1-3)Gal(b1-4)GlcNAc(b1-3)Gal(b1-4)GlcNAc
Outline: as §1

[20] = molecular target: GlcNAc(b1-3)Gal(b1-4)GlcNAc(b1-3)Gal(b1-4)GlcNAc(b1-2)Man(a1-3)[GlcNAc(b1-3)Gal(b1-4)GlcNAc(b1-3)Gal(b1-4)GlcNAc(b1-2)Man(a1-6)]Man(b1-4)GlcNAc(b1-4)GlcNAc
Outline: as §1

[21] = molecular target: GlcNAc(b1-3)Gal(b1-4)GlcNAc(b1-3)Gal(b1-4)GlcNAc(b1-2)Man(a1-3)[GlcNAc(b1-3)Gal(b1-4)GlcNAc(b1-3)Gal(b1-4)GlcNAc(b1-2)Man(a1-6)]Man(b1-4)GlcNAc(b1-4)[Fuc(a1-6)]GlcNAc
Outline: as §1

[22] = molecular target: GlcNAc(b1-3)Gal(b1-4)GlcNAc(b1-3)Gal(b1-4)GlcNAc(b1-2)[GlcNAc(b1-3)Gal(b1-4)GlcNAc(b1-3)Gal(b1-4)GlcNAc(b1-6)]Man(a1-6)[GlcNAc(b1-3)Gal(b1-4)GlcNAc(b1-3)Gal(b1-4)GlcNAc(b1-2)Man(a1-3)]Man(b1-4)GlcNAc(b1-4)[Fuc(a1-6)]GlcNAc
Outline: as §1

[23] = molecular target: GlcNAc(b1-3)Gal(b1-4)GlcNAc(b1-3)Gal(b1-4)GlcNAc(b1-3)Gal(b1-4)GlcNAc(b1-2)Man(a1-3)[GlcNAc(b1-3)Gal(b1-4)GlcNAc(b1-3)Gal(b1-4)GlcNAc(b1-3)Gal(b1-4)GlcNAc(b1-2)Man(a1-6)]Man(b1-4)GlcNAc(b1-4)GlcNAc
Outline: as §1

[24] = molecular target: GlcNAc(b1-3)Gal(b1-4)GlcNAc(b1-3)Gal(b1-4)GlcNAc(b1-3)Gal(b1-4)GlcNAc(b1-2)Man(a1-3)[GlcNAc(b1-3)Gal(b1-4)GlcNAc(b1-3)Gal(b1-4)GlcNAc(b1-3)Gal(b1-4)GlcNAc(b1-2)Man(a1-6)]Man(b1-4)GlcNAc(b1-4)[Fuc(a1-6)]GlcNAc
Outline: as §1

[25] = molecular target: GlcNAc(b1-3)Gal(b1-4)GlcNAc(b1-3)Gal(b1-4)GlcNAc(b1-3)Gal(b1-4)GlcNAc(b1-2)[GlcNAc(b1-3)Gal(b1-4)GlcNAc(b1-3)Gal(b1-4)GlcNAc(b1-3)Gal(b1-4)GlcNAc(b1-6)]Man(a1-6)[GlcNAc(b1-3)Gal(b1-4)GlcNAc(b1-3)Gal(b1-4)GlcNAc(b1-3)Gal(b1-4)GlcNAc(b1-2)Man(a1-3)]Man(b1-4)GlcNAc(b1-4)[Fuc(a1-6)]GlcNAc
Outline: as §1

[26] = molecular target: GlcNAc(b1-3)Gal(b1-4)GlcNAc(b1-3)Gal(b1-4)GlcNAc(b1-3)Gal(b1-4)GlcNAc(b1-3)Gal(b1-4)GlcNAc(b1-2)Man(a1-3)[GlcNAc(b1-3)Gal(b1-4)GlcNAc(b1-3)Gal(b1-4)GlcNAc(b1-3)Gal(b1-4)GlcNAc(b1-3)Gal(b1-4)GlcNAc(b1-2)Man(a1-6)]Man(b1-4)GlcNAc(b1-4)GlcNAc
Outline: as §1

[27] = molecular target: GlcNAc(b1-3)Gal(b1-4)GlcNAc(b1-3)Gal(b1-4)GlcNAc(b1-3)Gal(b1-4)GlcNAc(b1-3)Gal(b1-4)GlcNAc(b1-2)Man(a1-3)[GlcNAc(b1-3)Gal(b1-4)GlcNAc(b1-3)Gal(b1-4)GlcNAc(b1-3)Gal(b1-4)GlcNAc(b1-3)Gal(b1-4)GlcNAc(b1-2)Man(a1-6)]Man(b1-4)GlcNAc(b1-4)[Fuc(a1-6)]GlcNAc
Outline: as §1

[28] = molecular target: GlcNAc(b1-3)Gal(b1-4)GlcNAc(b1-3)Gal(b1-4)GlcNAc(b1-3)Gal(b1-4)GlcNAc(b1-3)Gal(b1-4)GlcNAc(b1-2)[GlcNAc(b1-3)Gal(b1-4)GlcNAc(b1-3)Gal(b1-4)GlcNAc(b1-3)Gal(b1-4)GlcNAc(b1-3)Gal(b1-4)GlcNAc(b1-6)]Man(a1-6)[GlcNAc(b1-3)Gal(b1-4)GlcNAc(b1-3)Gal(b1-4)GlcNAc(b1-3)Gal(b1-4)GlcNAc(b1-3)Gal(b1-4)GlcNAc(b1-2)Man(a1-3)]Man(b1-4)GlcNAc(b1-4)[Fuc(a1-6)]GlcNAc
Outline: as §1

[29] = molecular target: GlcNAc(b1-3)Gal(b1-4)GlcNAc(b1-3)Gal(b1-4)GlcNAc(b1-3)GalNAc
Outline: as §1

[30] = molecular target: GlcNAc(b1-3)Gal(b1-4)GlcNAc(b1-3)GalNAc
Outline: as §1

[31] = molecular target: GlcNAc(b1-3)Gal(b1-4)GlcNAc(b1-3)[GlcNAc(b1-3)Gal(b1-4)GlcNAc(b1-3)]GalNAc
Outline: as §1

[32] = molecular target: GlcNAc(b1-3)Gal(b1-4)GlcNAc(b1-6)[Gal(b1-3)]GalNAc
Outline: as §1

[33] = molecular target: GlcNAc(b1-3)Gal(b1-4)GlcNAc(b1-6)[GlcNAc(b1-3)Gal(b1-3)]GalNAc
Outline: as §1

[34] = molecular target: GlcNAc(b1-3)Gal(b1-4)GlcNAc(b1-6)[GlcNAc(b1-3)]Gal(b1-4)GlcNAc
Outline: as §1

B1: MGL (Homo sapiens), Q8IUN9 (protein)
chain: MTRTYENFQYLENKVKVQGFKNGPLPLQSLLQRLCSGPCHLLLSLGLGLLLLVIICVVGFQNSKFQRDLVTLRTDFSNFTSNTVAEIQALTSQGSSLEETIASLKAEVEGFKQERQAGVSELQEHTTQKAHLGHCPHCPSVCVPVHSEMLLRVQQLVQDLKKLTCQVATLNNNASTEGTCCPVNWVEHQDSCYWFSHSGMSWAEAEKYCQLKNAHLVVINSREEQNFVQKYLGSAYTWMGLSDPEGAWKWVDGTDYATGFQNWKPGQPDDWQGHGLGGGEDCAHFHPDGRWNDDVCQRPYHWVCEAGLGQTSQESH
- glycan array binding signal (z-score) [1]: -0.233
- glycan array binding signal (z-score) [2]: -0.243
- glycan array binding signal (z-score) [3]: -0.245
- glycan array binding signal (z-score) [4]: -0.242
- glycan array binding signal (z-score) [5]: -0.25
- glycan array binding signal (z-score) [6]: -0.241
- glycan array binding signal (z-score) [7]: -0.251
- glycan array binding signal (z-score) [8]: -0.249
- glycan array binding signal (z-score) [9]: -0.246
- glycan array binding signal (z-score) [10]: -0.238
- glycan array binding signal (z-score) [11]: -0.24
- glycan array binding signal (z-score) [12]: -0.249
- glycan array binding signal (z-score) [13]: -0.246
- glycan array binding signal (z-score) (GlcNAc(b1-3)Fuc): -0.24
- glycan array binding signal (z-score) (GlcNAc(b1-3)Gal): -0.248
- glycan array binding signal (z-score) [14]: -0.232
- glycan array binding signal (z-score) (GlcNAc(b1-3)Gal(b1-4)Glc): -0.24
- glycan array binding signal (z-score) [15]: -0.32
- glycan array binding signal (z-score) [16]: -0.24
- glycan array binding signal (z-score) [17]: -0.244
- glycan array binding signal (z-score) [18]: -0.152
- glycan array binding signal (z-score) [19]: -0.239
- glycan array binding signal (z-score) [20]: -0.231
- glycan array binding signal (z-score) [21]: -0.229
- glycan array binding signal (z-score) [22]: -0.215
- glycan array binding signal (z-score) [23]: -0.225
- glycan array binding signal (z-score) [24]: -0.222
- glycan array binding signal (z-score) [25]: -0.219
- glycan array binding signal (z-score) [26]: -0.236
- glycan array binding signal (z-score) [27]: -0.212
- glycan array binding signal (z-score) [28]: -0.213
- glycan array binding signal (z-score) [29]: -0.253
- glycan array binding signal (z-score) [30]: -0.268
- glycan array binding signal (z-score) [31]: -0.26
- glycan array binding signal (z-score) [32]: -0.25
- glycan array binding signal (z-score) [33]: -0.241
- glycan array binding signal (z-score) [34]: -0.242
